# According to ChEMBL document CHEMBL4888484, “Replenishing the malaria drug discovery pipeline: Screening and hit evaluation of the MMV Hit Generation Library 1 (HGL1) against asexual blood stage Plasmodium falciparum ,using a nano luciferase reporter read-out” (2022):
# Where “and” joins values, the source holds several entries; their conditions need not be identical. Equal values may be shown once. The whole screen tested about 4,800 compounds, of which about 410 (8.5%) showed an effect of 50% or more. The list shows a part of the results.
# System: Plasmodium falciparum
# Experiment: Confirmatory screen in NF54 pLDH assay, in single point, at 2uM, 72h
# Type: functional, Erythrocyte
# Details: timepoint 72 hour
SMILES,% Inhibition [%],% Inhibition (2 µM)
COc1cc(C(=O)NC(C)(C)c2c(C)noc2C)on1,7,–
CCNC(=O)C(=O)NCc1ccc(OC)cc1,-20,–
Cc1nn(CCOc2ccccc2)c(=O)n1-c1ccc(C(C)C)cc1,14,–
CCc1nn2c(c1-c1ccc(C)cc1)NC(=O)C[C@H]2C(=O)O,12,–
O=C(CN1CCC[C@H]1C1CCCC1)NCC1CCCCC1,61,–
CCOC(=O)[C@@H](NC(=O)Nc1ccccc1C(F)(F)F)C(F)(F)F,11,–
CC1CCC(N2C[C@@H](C(=O)OCC(C)(C)C)CC2=O)CC1 (stereo not given in full),12,–
Cc1ccc(C(=O)N2CCCC23CCC3)nn1,-9,–
Cc1ccc(Nc2c(-c3ccco3)nc3nc(C)cc(C)n23)cc1,-1,–
O=C(C[C@H]1CCOC1)Nc1cccc(F)c1,-4,–
CS(=O)(=O)CCOc1cccc(NCc2cocn2)c1,3,–
CCCNCc1cc(Br)ccc1OCC(N)=O,-11,–
Cc1ccc(NC(=O)C2CC2c2ccccc2)cc1NC(=O)C1CC1c1ccccc1 (stereo not given),15,–
CS(=O)(=O)n1cnc2cc(F)c(F)cc21,-8,–
CC(=O)Nc1ccc(NC(=O)CN2CCCN(c3cncc(F)c3)CC2)cc1,0,–
Clc1ccc(C[n+]2ccc(-c3nc4ccccc4o3)cc2)c(Cl)c1,48,–
COc1ccc(C(=O)N2CCCn3cc(-c4ccccc4F)nc32)cn1,2,–
CNC(=O)c1cc(N2CCN(c3ncc(C(F)(F)F)cc3Cl)CC2)ccc1NC(=O)c1ccccc1Cl,13,–
CC(C)CC[C@@H](CCNCCN(C)C)c1ccc(Cl)cc1,103,–
CC(C)NC[C@H]1COCc2nc3ccccc3n21,-15,–
COc1ccc(S(=O)(=O)N[C@H]2CCCc3cn(CC(F)(F)F)nc32)cc1,14,–
O=C(Nc1ccc(-c2nc3cnccc3o2)c(Cl)c1)c1sc2ccccc2c1Cl,5,–
CCC1(C)NC(=O)N(CC(O)CN2C(=O)c3ccccc3C2=O)C1=O (stereo not given),-5,–
CCn1cc(Br)c(=O)c(NC(=O)[C@H]2CCCOC2)c1,-7,–
CCN(CC)c1ccc(C(=O)C(F)(F)F)c(O)c1,0,–
C=CCOCC(O)CN(Cc1c(-c2ccccc2)noc1N1CCCCC1C)CC1CCCO1 (stereo not given),10,–
CCOc1ccc2c(n1)CCN(C(=O)c1ccsc1)C2,-12,–

SMILES,% Inhibition [%],% Inhibition (2 µM)
Cc1nc(CN(C)C(=O)c2ccccc2Nc2cccc(C)c2C)cs1,10,–
CCN1C(=O)Cc2cc(NC(=O)c3ccc(Br)o3)ccc21,12,–
Cc1cc(Nc2ccc(CN3CCCC3=O)cc2)nc(C2CC2)n1,-2,–
Cc1cc(C)cc(-n2cc(C(=O)NCCCc3ccccc3)nn2)c1,8,–
CCc1cccc2c(C3=CCN(C(=O)NC[C@H]4COCCO4)CC3)c[nH]c12,8,–
O=C(NCc1ccccc1OC1CCC1)N(CCO)C1CC1,9,–
CC(C)OC1CC(Nc2cccc(CO)c2)C1 (stereo not given),-6,–
COc1ccc(OC)c(NC(=O)CN2CCc3[nH]c4ccc(F)cc4c(=O)c3C2)c1,83,–
CN(C)c1nc(CN2CCC(CO)CC2)ns1,6,–
CC(C)(C)c1ccc(NC(=O)c2ccnnc2)c(O)c1,-10,–
Cc1occc1C(=O)NCCCn1ncc2c(C)cccc21,1,–
C[C@@H](c1cc(Cl)ccc1Cl)n1nccc1NC(=O)c1ccoc1,-6,–
Cc1c2c(C(F)(F)F)cc(=O)n(CCC(=O)Nc3ccc4c(c3)OCCO4)c2nn1C,8,–
Cc1c(S(=O)(=O)N2CCC(C)(C(=O)NCc3ccc(F)cc3)CC2)cnn1C(F)F,8,–
COc1ccsc1CNc1ccc2[nH]ncc2c1,10,–
Cc1ccccc1Nc1c(-c2c[nH]c3ccccc23)nc2ncccn12,-4,–
CC1CN(CCCNC(=O)Cc2c[nH]c3ccc(F)cc23)CC(C)O1 (stereo not given),-4,–
CCc1c([C@H](C)S(=O)(=O)c2ccccc2)[nH]c(=O)n1C(C)(C)C,-14,–
O=C(c1nccnc1-c1nc2ccccc2s1)N1CCc2sccc2C1,-12,–
CCOCc1nc(-c2ccc(=O)n(C)c2)no1,8,–
Cc1ccc(CNC(=O)[C@@H](C)C2CCOCC2)cc1C,7,–
CN([C@H]1CCc2nn(CC3CC3)c(=O)n2CC1)S(=O)(=O)c1ccccc1C(F)(F)F,1,–
CN(CC(F)(F)F)C(=O)CNC(=O)c1cc(F)cc(Cl)c1O,-2,–
Cc1cccc(NC(=O)c2c(C)sc3ncnc(N4CCCCC4)c23)c1C,11,–
CS(=O)(=O)N(CCCC(=O)N1CC(=O)Nc2ccccc21)c1cc(Cl)ccc1Cl,10,–
COc1ccc2[nH]c3c(c2c1)CC(C(=O)O)NC3c1ccc(OC)c(CN2CCN(c3ccccc3F)CC2)c1 (stereo not given),72,–
COc1cc(Cl)c(C)cc1NC(=O)c1cc(=O)n(-c2ccc(C)cc2)[nH]1,-14,–

SMILES,% Inhibition [%],% Inhibition (2 µM)
COc1cc(C=C(C(=O)Nc2ccccc2F)C(=O)Nc2ccccc2F)ccc1OCC(=O)Nc1cccc(C(F)(F)F)c1,-18,–
C=CCC(N)(CC=C)c1ccc(C)cc1,4,–
Cc1noc2c1N=C(c1ccc(F)cc1)C[C@@H](c1ccc(F)cc1)C2,1,–
COCc1cc(F)ccc1NC(=O)NC1CCN(c2cc(C)nc(C)n2)CC1,5,–
Cn1ncnc1CNc1cccc(Cl)c1Br,10,–
CCOC(=O)c1cnc(N2CCCC2)nc1C1CCN(C(=O)OC(C)(C)C)CC1,-9,–
Cc1ccn2c(CN3CCN([C@H]4CCN(Cc5ccccc5)C4)CC3)c(C)nc2c1,9,–
O=C(Nc1ccccc1)N1CCC[C@H]1c1ccncc1,-4,–
O=C(Nc1ccccc1N1CCOCC1)[C@@H]1CC=CCC1,-10,–
CS(=O)(=O)N1CC[C@H](CC(=O)N2CCN(c3ccc(F)cc3)CC2)C1,-21,–
COc1ccc(C(C)(C)C(=O)N(C)Cc2cn(C)nc2C(C)C)cc1,13,–
COc1cccc(-c2nc(C)c(C(=O)Nc3n[nH]c(CC(C)C)n3)s2)c1,–,-15% and 3%
O=C(NC1=NN2C(=NC(c3ccc(Cl)cc3)=C[C@H]2c2ccc(F)cc2)N1)c1ccc(Cl)cc1,13,–
Cc1cc(Cn2cc(C(c3ccccc3)c3ccccc3)nn2)no1,7,–
N#Cc1ccc2c(c1)N(Cc1ccccc1F)C(=O)[C@@H]1CCCN21,7,–
Cc1cc(NCc2noc(-c3ccsc3)n2)ccc1C(N)=O,5,–
COc1ccc2ncc(=O)n(CCOc3ccccc3)c2c1,9,–
CCN(CC)CCCNC(=O)c1ccc(-c2nc(CS(=O)(=O)c3ccccc3)c(C)o2)cc1,-11,–
c1cc(Cn2cnc3c2CCCC3)cs1,-6,–
CCOc1cccc(COC(=O)c2cc(C#N)cn2C)n1,1,–
Nc1nc(N2CCN(c3ccc(F)c(Cl)c3)CC2)cc([C@H]2C[C@@H](N)C2)n1,34,–
CC1(C)Cc2nc3ccccc3c(NCc3ccccc3)c2[C@@H](O)C1,54,–
CCC1(CC)CN(C(=O)c2ccn(C)c(=O)c2)c2ccccc21,13,–
Cc1ccc([C@H](c2c[nH]c3ccccc23)N(C)C(=O)C(C)C)cc1,0,–
CNc1nc(Nc2ccc3c(c2)OCCO3)nc2ccccc12,103,–
COCCCNC(=O)C1CCN(c2c(C)n(-c3ccccc3)c(=O)n(CC(C)C)c2=O)CC1,5,–
Cc1cccnc1NC(=O)OC(C)(C)C,10,–

SMILES,% Inhibition [%],% Inhibition (2 µM)
CC(Oc1ccccc1)C(=O)N1CCNC(=O)C1c1ccc(Br)cc1 (stereo not given),-3,–
C1CCC(Nc2nc3nonc3nc2N2CCCCC2)CC1,15,–
COc1cccc(-n2c(C)cc(C(=O)N3CCNC(=O)CC3)c2C)c1,-5,–
O=C1[C@@H]2C[C@@H](CN2C(=O)c2cncnc2)Oc2ccccc2N1Cc1cccnc1,6,–
CC1CCCC(C)C12NC(=O)N(CN1CCN(CCOc3ccccc3Cl)CC1)C2=O (stereo not given),5,–
CCOC(=O)[C@@H](OC(=O)Nc1cccc(C(F)(F)F)c1)C(F)(F)F,3,–
O[C@@]1(CN2CCC(COc3ccc4c(c3)CCC4)CC2)CCCNC1,45,–
Cn1ncc(Cl)c1C(=O)N(C1CCCCC1)C1CCCCC1,10,–
Cc1nn(C[C@H](C)/C(N)=N/O)cc1Cl,7,–
O=C(NCCc1cccs1)c1nn[nH]c1Nc1ccccc1F,4,–
CCCCC(C)C(=O)N1CCC2CN(C(=O)C(F)(F)F)CC2C1 (stereo not given),8,–
c1ccc(-c2nccc(-c3ccc(-n4cncn4)cc3)n2)nc1,18,–
Cc1nn(-c2nc3ccccc3[nH]2)c(O)c1Cc1ccccc1,17,–
O=C(CCc1ccccc1)Nc1ccc(-n2nn[nH]c2=O)cc1,15,–
CN(Cc1cnn(-c2ccccc2)n1)c1ncnc2[nH]ncc12,10,–
CCOC(=O)Nc1nc(C)c(-c2nc3ccccc3c(=O)n2-c2ccc(OC)cc2)s1,9,–
Clc1cc(CNCCc2ccccc2)ccc1OCc1ccccc1,3,–
C[C@H](Nc1nc(N2CCCCC2)nc2ccccc12)c1ccccc1,-6,–
CCC(CC)c1ccc([C@H]2N(C(=O)c3ccc(C)cc3)CCN2S(=O)(=O)c2ccccc2)cc1,-2,–
CC(C)(C)OC(=O)Cn1cc(CO)nn1,10,–
CN(C)CCCNc1nc(N2CCCC2)c2c(c1C#N)CCN(C)C2,14,–
COc1cc2c(cc1Cl)-n1cccc1C1(CCNCC1)N2,-15,–
CCCOc1ccc(Cl)c(CN2OCC(C)(C)C2=O)c1,-16,–
C[C@H]1CCCN(C(=O)CNC(=O)Cc2ccccc2)CC1,-10,–
